Source: PubChem BioAssay (NCI)
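Results reflect a 48-hour exposure of cells in 96-well plates to compound at five concentrations. Abbreviation: GI50, concentration required for 50% inhibition of growth.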 Certain results were filed several times, with different values. They are shown here; other results are not. An entry can have further records. Records of one sample usually come from different ranges of test concentrations, not given here; a value can be the end of its range. Marks in square brackets tell the records apart. The letters are not those of the source and start again with each entry.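 TGI denotes the concentration required for complete inhibition of growth.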

Columns and labels:
Test in all cases: NCI tumour cell line growth inhibition, 48 h
NCI-H226 lung = system: NCI-H226 lung
NCI-H23 lung = system: NCI-H23 lung
NCI-H460 lung = system: NCI-H460 lung
NCI-H522 lung = system: NCI-H522 lung
OVCAR-3 ovarian = system: OVCAR-3 ovarian
OVCAR-4 ovarian = system: OVCAR-4 ovarian
OVCAR-5 ovarian = system: OVCAR-5 ovarian
OVCAR-8 ovarian = system: OVCAR-8 ovarian
RPMI-8226 leukemia = system: RPMI-8226 leukemia
RXF 393 renal = system: RXF 393 renal
SF-268 CNS = system: SF-268 CNS
SF-295 CNS = system: SF-295 CNS
SF-539 CNS = system: SF-539 CNS
SK-MEL-2 melanoma = system: SK-MEL-2 melanoma
SK-MEL-28 melanoma = system: SK-MEL-28 melanoma
SK-MEL-5 melanoma = system: SK-MEL-5 melanoma
SK-OV-3 ovarian = system: SK-OV-3 ovarian
SN12C renal = system: SN12C renal
SNB-19 CNS = system: SNB-19 CNS
SNB-75 CNS = system: SNB-75 CNS
SR leukemia = system: SR leukemia
SW-620 colon = system: SW-620 colon
TK-10 renal = system: TK-10 renal
U251 CNS = system: U251 CNS
UACC-257 melanoma = system: UACC-257 melanoma
UACC-62 melanoma = system: UACC-62 melanoma
UO-31 renal = system: UO-31 renal
XF 498 CNS = system: XF 498 CNS

For `O=C1NC2C(CC(O)C(O)C2O)c2cc3c(c(O)c21)OCO3` (stereo unspecified), the GI50 (NCI-H226 lung) was 82.1 nM, < 14.1 nM [sample A, mean of 2 tests] and 2.17 µM [sample B, mean of 2 tests], the TGI (NCI-H226 lung) was 259 nM, 44.1 nM [sample A, mean of 2 tests] and 7.13 µM [sample B, mean of 2 tests] and the GI50 (NCI-H23 lung) was 46.5 nM, < 13.6 nM [sample A, mean of 2 tests] and 2.58 µM [sample B, mean of 2 tests]. The TGI (NCI-H23 lung) was 219 nM, 49 nM [sample A, mean of 2 tests] and 8.72 µM [sample B, mean of 2 tests], the GI50 (NCI-H460 lung) was 44.9 nM, < 12.1 nM [sample A, mean of 2 tests] and 1.79 µM [sample B, mean of 2 tests] and the TGI (NCI-H460 lung) was 473 nM, 57.5 nM [sample A, mean of 2 tests] and 8.89 µM [sample B, mean of 2 tests]. The GI50 (NCI-H522 lung) was 44.5 nM [sample A, 1 test] and < 11.4 nM [sample A, mean of 2 tests] and 1.53 µM [sample B, mean of 2 tests], the TGI (NCI-H522 lung) was 328 nM [sample A, 1 test] and 26.4 nM [sample A, mean of 2 tests] and 4.52 µM [sample B, mean of 2 tests] and the GI50 (OVCAR-3 ovarian) was 65.5 nM, < 15.3 nM [sample A, mean of 2 tests] and 2.68 µM [sample B, mean of 2 tests]. The TGI (OVCAR-3 ovarian) was 385 nM, 61 nM [sample A, mean of 2 tests] and 10.6 µM [sample B, mean of 2 tests], the GI50 (OVCAR-4 ovarian) was 32.1 nM, < 11.5 nM [sample A, mean of 2 tests] and 1.85 µM [sample B, mean of 2 tests] and the TGI (OVCAR-4 ovarian) was 217 nM, 43.2 nM [sample A, mean of 2 tests] and 8.36 µM [sample B, mean of 2 tests]. The GI50 (OVCAR-5 ovarian) was 190 nM, 25.6 nM [sample A, mean of 2 tests] and 5.01 µM [sample B, mean of 2 tests], the TGI (OVCAR-5 ovarian) was 636 nM, 79.2 nM [sample A, mean of 2 tests] and 26.4 µM [sample B, mean of 2 tests] and the GI50 (OVCAR-8 ovarian) was 41.3 nM, < 16.8 nM [sample A, mean of 2 tests] and 2.65 µM [sample B, mean of 2 tests]. For the same molecule, the TGI (OVCAR-8 ovarian) was 321 nM, 235 nM [sample A, mean of 2 tests] and > 45.8 µM [sample B, mean of 2 tests], the GI50 (RPMI-8226 leukemia) was 11.1 nM [sample A, 1 test] and 40.6 nM [sample A, mean of 2 tests] and 1.89 µM [sample B, 1 test] and the TGI (RPMI-8226 leukemia) was 44.2 nM [sample A, 1 test] and 225 nM [sample A, mean of 2 tests] and 6.84 µM [sample B, 1 test]. The GI50 (RXF 393 renal) was 26.8 nM [sample A, 1 test] and 85.2 nM [sample A, mean of 2 tests] and 2.96 µM [sample B, 1 test], the TGI (RXF 393 renal) was 138 nM [sample A, 1 test] and 262 nM [sample A, mean of 2 tests] and 16.2 µM [sample B, 1 test] and the GI50 (SF-268 CNS) was 44.4 nM, < 15.9 nM [sample A, mean of 2 tests] and 1.38 µM [sample B, mean of 2 tests]. The TGI (SF-268 CNS) was 300 nM, 82.4 nM [sample A, mean of 2 tests] and 8.66 µM [sample B, mean of 2 tests], the GI50 (SF-295 CNS) was 94.8 nM, 20.2 nM [sample A, mean of 2 tests] and 3.81 µM [sample B, mean of 2 tests] and the TGI (SF-295 CNS) was 520 nM, 143 nM [sample A, mean of 2 tests] and 35.1 µM [sample B, mean of 2 tests]. The GI50 (SF-539 CNS) was 51.6 nM, < 13.4 nM [sample A, mean of 2 tests] and 2.32 µM [sample B, mean of 2 tests], the TGI (SF-539 CNS) was 206 nM, 35.9 nM [sample A, mean of 2 tests] and 6.44 µM [sample B, mean of 2 tests] and the GI50 (SK-MEL-2 melanoma) was 46.6 nM [sample A, 1 test] and < 16.5 nM [sample A, mean of 2 tests] and 2.28 µM [sample B, mean of 2 tests]. For the same molecule, the TGI (SK-MEL-2 melanoma) was 362 nM [sample A, 1 test] and 66.8 nM [sample A, mean of 2 tests] and 10 µM [sample B, mean of 2 tests], the GI50 (SK-MEL-28 melanoma) was 41.4 nM, 14.3 nM [sample A, mean of 2 tests] and 2.54 µM [sample B, mean of 2 tests] and the TGI (SK-MEL-28 melanoma) was 276 nM, 75.6 nM [sample A, mean of 2 tests] and 11.7 µM [sample B, mean of 2 tests]. The GI50 (SK-MEL-5 melanoma) was 45 nM, < 10 nM [sample A, 1 test] and 1.68 µM [sample B, mean of 2 tests], the TGI (SK-MEL-5 melanoma) was 194 nM, 446 nM [sample A, 1 test] and 27.4 µM [sample B, mean of 2 tests] and the GI50 (SK-OV-3 ovarian) was 141 nM, < 21.2 nM [sample A, mean of 2 tests] and 913 nM [sample B, mean of 2 tests]. For the same molecule, the TGI (SK-OV-3 ovarian) was 639 nM, 191 nM [sample A, mean of 2 tests] and 16.7 µM [sample B, mean of 2 tests], the GI50 (SN12C renal) was 48.8 nM, 15.8 nM [sample A, mean of 2 tests] and 2.22 µM [sample B, mean of 2 tests] and the TGI (SN12C renal) was 367 nM, 104 nM [sample A, mean of 2 tests] and 13 µM [sample B, mean of 2 tests]. The GI50 (SNB-19 CNS) was 31.8 nM, < 10 nM [sample A, mean of 2 tests] and 2.05 µM [sample B, mean of 2 tests], the TGI (SNB-19 CNS) was 293 nM, 43.6 nM [sample A, mean of 2 tests] and 14.4 µM [sample B, mean of 2 tests] and the GI50 (SNB-75 CNS) was 36.5 nM, < 21 nM [sample A, mean of 2 tests] and 711 nM, 966 nM [sample B, mean of 2 tests]. The TGI (SNB-75 CNS) was 306 nM, 160 nM [sample A, mean of 2 tests] and 14.9 µM [sample B, mean of 2 tests], the GI50 (SR leukemia) was 19.9 nM [sample A, 1 test] and < 11.2 nM [sample A, mean of 2 tests] and 2.14 µM [sample B, mean of 2 tests] and the TGI (SR leukemia) was 83.7 nM [sample A, 1 test] and 30.5 nM [sample A, mean of 2 tests] and 6.46 µM [sample B, mean of 2 tests]. The GI50 (SW-620 colon) was 47.2 nM, < 14.8 nM [sample A, mean of 2 tests] and 3.05 µM [sample B, mean of 2 tests], the TGI (SW-620 colon) was 678 nM, 69.6 nM [sample A, mean of 2 tests] and 23.4 µM [sample B, mean of 2 tests] and the GI50 (TK-10 renal) was 163 nM, 34.1 nM [sample A, mean of 2 tests] and 4.74 µM [sample B, mean of 2 tests]. For the same molecule, the TGI (TK-10 renal) was 678 nM, 381 nM [sample A, mean of 2 tests] and 52.5 µM [sample B, mean of 2 tests], the GI50 (U251 CNS) was 40.1 nM, < 11.8 nM [sample A, mean of 2 tests] and 1.33 µM [sample B, mean of 2 tests] and the TGI (U251 CNS) was 457 nM, 92.4 nM [sample A, mean of 2 tests] and 6.52 µM [sample B, mean of 2 tests]. For the same molecule, the GI50 (UACC-257 melanoma) was 53.2 nM, 17.4 nM [sample A, mean of 2 tests] and 2.21 µM [sample B, mean of 2 tests], the TGI (UACC-257 melanoma) was 287 nM, 87.9 nM [sample A, mean of 2 tests] and 12.6 µM [sample B, mean of 2 tests] and the GI50 (UACC-62 melanoma) was 61.3 nM, 15.5 nM [sample A, mean of 2 tests] and 2.23 µM [sample B, mean of 2 tests]. The TGI (UACC-62 melanoma) was 319 nM, 72.5 nM [sample A, mean of 2 tests] and 14 µM [sample B, mean of 2 tests], the GI50 (UO-31 renal) was 94.4 nM, 27 nM [sample A, mean of 2 tests] and 2.62 µM [sample B, mean of 2 tests] and the TGI (UO-31 renal) was 415 nM, 114 nM [sample A, mean of 2 tests] and 16.1 µM [sample B, mean of 2 tests]. For the same molecule, the GI50 (XF 498 CNS) was 22.4 nM, < 10.4 nM [sample A, mean of 2 tests] and 933 nM [sample B, mean of 2 tests] and the TGI (XF 498 CNS) was 142 nM, 43.7 nM [sample A, mean of 2 tests] and 5.46 µM [sample B, mean of 2 tests].
